The list shows a part of the results. At the low end of the ranking the order means little.
Molecular target: T1, GST-Rok (full length) (UniProt O34857)
T1 sequence: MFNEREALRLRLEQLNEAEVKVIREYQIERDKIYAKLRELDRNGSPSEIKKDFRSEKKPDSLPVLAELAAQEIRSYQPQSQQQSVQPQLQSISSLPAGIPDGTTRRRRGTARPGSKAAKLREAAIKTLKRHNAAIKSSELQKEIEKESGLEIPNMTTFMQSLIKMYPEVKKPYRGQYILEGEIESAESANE
Assay: protein binding microarray;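 note: rank score from −0.5 (least bound) to 0.5 (best bound)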
Conditions: Rok is a gene silencer of Bacillus subtilis; high values mean tight binding; most listed sequences are background and not binding sites; double strand, one strand shown

Row | Sequence | binding signal [E-score]
1 | GATTTCGC | 0.0887
2 | GCGAATGA | -0.0886
3 | CACGCTTC | -0.2
4 | GGTCTTTA | -0.0477
5 | AACGCCGC | -0.28
6 | AGTATAGG | 0.286
7 | GACTCATA | -0.016
8 | AACGACCA | -0.0854
9 | ACGCTGCC | -0.207
10 | CGTTCGGC | -0.125
11 | CAGTGCCC | -0.22
12 | GTTTGTGA | 0.148
13 | CAGTTGGG | -0.00638
14 | ACACCAGT | -0.173
15 | AGCGACGA | 0.0576
16 | CCGAACGC | -0.192
17 | TGGCCAAA | -0.145
18 | TACGAATA | 0.175
19 | AAAAACAG | 0.235
20 | ATTTACCG | 0.217
21 | CGAACCAA | -0.145
22 | CAAAGGCG | -0.218

Row | Sequence | binding signal [E-score]
23 | GTGCGAGA | -0.158
24 | AAAACGGA | -0.0513
25 | ATCTACAG | 0.26
26 | CGATTGAC | 0.0142
27 | ACAAAGCT | 0.156
28 | GATACTAA | 0.307
29 | CCAGTGGA | -0.187
30 | AGAGCTTA | -0.044
31 | GCTGTCAC | -0.113
32 | ACAGCGTA | 0.013
33 | CTTACGGA | -0.142
34 | CACTCAAC | -0.00301
35 | CGGACTGA | -0.271
36 | GATTAAGC | 0.177
37 | CCTCCACA | -0.0125
38 | ACCCCGGC | -0.283
39 | GCATATTA | 0.242
40 | AGAGCCGA | -0.249
41 | CGGAGTCA | -0.0825
42 | AGCATCTA | 0.174
43 | AGGGTAGG | -0.0805
44 | CTCATAAC | -0.0629

Row | Sequence | binding signal [E-score]
45 | ACATCCGG | 0.00562
46 | CGCCAGAC | -0.252
47 | ACCGTACG | 0.144
48 | AACACTAG | 0.121
49 | GCAACTCC | -0.137
50 | ATGCCGAG | -0.194
51 | ACGGTTTG | 0.151
52 | CACGTCCA | -0.203
53 | TAATCGGA | -0.0831
54 | CAATGGGC | -0.332
55 | ATACGCCA | 0.00399
56 | GAGAGCTC | -0.152
57 | AGACCAAA | -0.159
58 | CTTAACAC | -0.0119
59 | CTTTTTAC | 0.274
60 | ACGATTAC | -0.0877
61 | CTGCAGTC | -0.0064
62 | ATTCGTAG | 0.139
63 | CCGAGTTC | -0.0244
64 | CGTAAGCA | -0.118
65 | CGAGAGCG | -0.328
66 | GGTCTTAA | -0.313

Row | Sequence | binding signal [E-score]
67 | CGTAACAC | 0.0468
68 | ACGGTCGC | -0.194
69 | GATGACAC | -0.107
70 | AGTGAGGG | -0.334
71 | ATACTTGC | 0.153
72 | ACCCCCTC | -0.478
73 | AGCGGGCA | -0.128
74 | GCACCGTA | -0.23
75 | GGCAGGAC | -0.344
76 | CGGGAGCC | -0.36
77 | ACATGGAT | 0.191
78 | AGACGAAG | 0.0239
79 | GGACCAGA | -0.000709
80 | GACATTCC | 0.108
81 | CAACTCGG | 0.109
82 | TCACCAGA | -0.019
83 | ACCCTTAA | 0.00677
84 | GTCCAACA | -0.0189
85 | CCAGGCAC | -0.402
86 | CAGTTCAC | 0.0579

Reference: publication PMC6212790
